Reference: the supplement of paper PMC10126150
Values marked as one replicate rest on one cluster of the flow cell; about a third of the high ones do not repeat.

test system: ATP; assay: switch fluorescence ratio, 500 uM ATP over buffer (Cy3 cluster intensity, sum of 5 cycles each) (fold (ratio)); higher = stronger signal-on switching upon ATP binding; sequences stand for … in TCGTCGGCAGCGTCAGATGTGTATAAGAGACAGTTTTTTTTTTTTTTTTTTTTTTTTT…TC; settings: aptamer strand: ATP DNA aptamer (quencher-CACCTGGGGGAGTATTGCGGAGGAAGG + anchor), 100 nM annealed; ATP concentration: 500 uM; one replicate
How it was run: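 Imaging in selection buffer was followed by imaging after 15 min with 500 uM ATP at 22 °C, for Cy3-labelled switching-strand clusters annealed to 100 nM quencher-labelled ATP aptamer on a modified Illumina MiSeq flow-cell. Five of these buffer/ATP cycles ran, separated by NaOH stripping and re-annealing. The fluorescence ratio per cluster is summed target-cycle over summed buffer-cycle Cy3 intensity, averaged per switch-domain sequence; clusters outside 100-1000 RFU were removed.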
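Further: ATP exposure 15 min at 22 °C before imaging.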

Sequence	switch fluorescence ratio
GATGAAAACG	1
AACGTTTACG	0.988
CCTCTCACTC	3.06
GGTACCTAGT	1.02
CACAGGCTCG	1
GCTTGGTACG	0.991
GACCTCGAGT	0.987
ATGGTCGGCG	1.01
CGTCAGCCGG	1.05
TGATTGCAAG	1.09
CCTCCATTCA	1.81
CGTCGTATCT	0.95
TAGGGGTCAT	0.982
TAAGGCTGGT	1.02
ACTAAGATTA	1.01
TCGGGTGGCA	0.975
TGTGGAGACG	0.889
ACGATTGCG	1
TATGTCTAT	0.995
GTTTGGGGA	1.01
GCTTTGTTCC	1.06
GGAGTAACGC	1.08
GGTTTCTATA	1
TTATGCCCCG	1.06
AACCTTTTGA	1.2
ACTCGGCATC	2.62

Sequence	switch fluorescence ratio
GCGATGCAGC	1.16
GTCTTCGCGA	1.32
TCTGGGCTTA	0.99
TCGCGCGAGA	0.995
GTGGTCGACG	1.04
ACAACCGCCC	2.2
ATAGGTAACG	1.01
GGATCGCAT	1.1
GCTTGCTGGA	0.999
ATCGGACAGC	1.06
TCCATATCAA	1.01
AAAAGACCGG	0.917
GCTGAGCTCC	1.04
TTGCGCCTCT	1.02
GGGGATTC	1
GGAGCTACTT	1.59
GCGGGGGGT	1.01
CTCCGCGGAG	1.3
TACATTGATT	1.07
TTTGATTGCT	0.991
ACGATACGGT	1.42
GACGGCACAG	1.05
GTGTAGAACT	1.02
GATAGGTTTT	0.999
TGAGAAAGAT	0.942
CTAGCGTGAG	0.975

Sequence	switch fluorescence ratio
GTGACGACAA	1.2
GATTTGTCCG	0.999
TAATCAATAC	3.27
CAGTCACTCC	1.15
CTAAGGGCTC	1
CTGATGAGA	0.997
GTGCTTTGTG	0.959
AGACACGATC	1.07
AGTGTCTTAA	1.03
TATGATCGTC	0.993
GGGAAGGCAG	0.988
TTCTGGTTTC	1.03
TTTCACAGTG	1.03
TGTTGATGAG	0.941
TTTGTTTT	0.951
CGGTGCAGGC	0.843
GTCATATTGG	0.989
ATAAAAGTGA	0.985
TGGTAGACCC	0.995
TATGTAAGAA	0.986
AGCACGGATA	1.05
CATATAGCCC	0.982
AGTAGACGGG	0.977
AACGTTCGAA	0.959
GCATGCGGGG	0.992
CTATGTGTCC	0.999

Sequence	switch fluorescence ratio
GGTGTTGTCA	0.993
TATTAGAGT	1.04
CTGTGTTTTA	1.02
GAAGAACTAT	0.996
GCCCTTGGAT	1.02
ATTATGAG	0.983
TACAATGGAT	0.991
AACCTGATTC	1.62
AAACGAAAAT	0.948
TCATGTGGG	1.02
TAATATCGAC	1.1
TGAATTGTAG	0.988
GGTGTACGAC	1.02
GATCTTAGAA	0.979
TACTTCAGTC	1
CGTTCTGGAC	1.05
TGCAACCTGC	1.02
TGGGTTATG	0.991
GAAAATGTGG	0.988
AGAAGCAGGC	0.782
GCGTGCTGCA	1.03
CCAGCCCGCA	3.23
ATTGGTCATG	0.972
